Measurements: PubChem BioAssay AID1508642 (National Center for Advancing Translational Sciences (NCATS), 2021)
Out of some 43,000 compounds screened, about 200 (0.47%) were called active. Roughly 12% stayed inconclusive and do not appear here. Calls come from the whole dose curve; as a rule, active = well fitted cell-killing curve with a large enough effect; inconclusive = small, poorly fitted or top-dose-only effect, or effect the other way; inactive = flat fitted curve, though single readings scatter. Some of the results follow.

Test: Cell viability qHTS assay in S16 Pmp22-F2sN cells; note: nearly all actives have a fitted effect of over 65% in size
Conditions: S16 Pmp22-F2sN Schwann cells viability, CellTiter-Glo, 24 h; series mostly up to 57.5 µM; activity change, negative = cytotoxicity: at the top concentration
Method in brief: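 Used to flag compounds lowering reporter output through toxicity, this quantitative HTS measures ATP-based CellTiter-Glo luminescence in S16 Pmp22-F2sN Schwann cells after 24 h compound exposure at 37C.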
% is set by controls: 0 for no effect and ±100 for the full control effect.

Structure (SMILES) | activity change, negative = cytotoxicity
COc1ccc(-c2onc(C)c2C)cc1S(=O)(=O)Nc1cccc(C#N)c1 | inactive: -20.1%
O=C(NCCc1ccc(Cl)cc1)c1ccc2c(c1)nc1n2CCOC1 | inactive: 17.7%
CCOC(=O)N1CCc2c(sc3c2c(=O)n(-c2ccc(F)cc2)c(=O)n3CC(=O)c2ccc(Cl)cc2)C1 | inactive: 1.66%
CC(=O)C1=C(c2ccc(F)cc2)N(C(C)=O)n2c(nnc2C2CCCCC2)S1 | inactive: -18.1%
Cc1ccc(NC(=O)CSc2nc(-c3cccs3)nc3cc(=O)[nH]n23)cc1C | inactive: -3.83%
CCOc1ccccc1CN1CCc2nc(N3CCN(C)CC3)ncc2C1 | inactive: 1.59%
O=C(Cn1ncc2c3ccccc3n(Cc3cccc(Cl)c3)c2c1=O)NCCCN1CCCCC1 | inactive: -0.799%
CCOCCCNc1nc2c(S(=O)(=O)c3ccc(CC)cc3)nnn2c2ccc(Cl)cc12 | inactive: 4.35%
Cc1ccc(CNC(=O)Cn2c(=O)cc(C)c3c(C)nn(-c4cccc(F)c4)c32)cc1 | inactive: -0.446%
CCOc1ccc(-c2cc(C(=O)NC(C)c3ccccc3)c3ccccc3n2)cc1 (stereo unspecified) | inactive: 0.159%
COc1ccc(COC(=O)C2=C(C)NC(=O)CC2c2cccc(Cl)c2Cl)cc1 (stereo unspecified) | inactive: 0.732%
CN1C(C(=O)c2ccccc2)=C(NC(=O)c2ccc(F)cc2)c2ccccc2S1(=O)=O | inactive: 5.08%
CCN(CC)c1ccc(NC(=O)CN2CCN(c3ccccc3OC)CC2)cc1 | inactive: 6.04%
Oc1c(C(c2ccccc2)N2CCOCC2)sc2nc(-c3ccco3)nn12 (stereo unspecified) | inactive: -2.24%
CCOC(=O)c1cc(C)n(CC2CCC(C(=O)Nc3cccc(Cl)c3)CC2)c1C (stereo unspecified) | inactive: -14.2%
Nc1c(C(=O)Nc2cccc(F)c2)nnn1-c1cccc(C(F)(F)F)c1 | inactive: -1.71%
Cc1cc(C)cc(NC(=O)c2sc3nc4n(c(=O)c3c2C)N=C(c2ccccc2)CS4)c1 | inactive: -0.807%
COc1ccc(C2=C(C)C(=O)N(Cc3ccc(C(=O)NC(C)c4ccccc4)cc3)S2(=O)=O)cc1 (stereo unspecified) | inactive: 0.801%
CCOc1ccc(N2CC(c3nc4ccccc4n3CCCCOc3ccc(OC)cc3)CC2=O)cc1 (stereo unspecified) | inactive: -7.82%
Cc1cc(=O)n2nc(N3CCC(C(=O)Nc4c(C)cccc4C)CC3)sc2n1 | inactive: 13.9%
Cc1cccc(OC(C)C(=O)Nc2nonc2-c2ccc(Br)cc2)c1C (stereo unspecified) | inactive: -13.5%
O=C(NC1CCCCCC1)C1c2ccccc2C(=O)N1Cc1ccc(F)cc1 (stereo unspecified) | inactive: -5.64%
COc1ccc(CNC(=O)CN2C(=O)CSc3ccc(S(=O)(=O)N(C)C)cc32)cc1 | inactive: 8.81%
CC1CCN(S(=O)(=O)c2cc3c4c(c2)C(C)C(=O)N4CCC3)CC1 (stereo unspecified) | inactive: -5.99%
Cc1cccc(N2C(=O)CSC23C(=O)N(CC(=O)Nc2cccc(Cl)c2)c2ccccc23)c1 (stereo unspecified) | inactive: -16.5%
COc1ccc(OC)c(CNC(=O)c2ccc3nc(C(C)C)oc3c2)c1 | inactive: -3.59%
